# Screen size: about 370,000 compounds; about 500 (0.14%) were called active. Inconclusive means that the source gave no clear call. Such entries were picked first, then a sample of the others. The call rests on the fitted dose curve; in most records, active means well fitted activation curve with a large enough effect; inconclusive means small, poorly fitted or top-dose-only effect; inactive means no such curve, though single readings can be large or run the other way. No potency is given beside an inconclusive call; the fits are too rough.
# Experiment: qHTS of alpha-syn Inhibitors; further: nearly all actives have a fitted effect of over 65% in size; on growth rescue (activation): % of control where 0% means no effect
# Conditions: Yeast expressing alpha-synuclein, BacTiter-Glo, 24 h; Potency: growth rescue unless noted; growth rescue (activation): at 46.1 µM (top of the series) unless noted
# Outline: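 Screening used galactose-induced yeast with toxic alpha-synuclein levels, exposed to compound for 24 hr at 30 deg C. Cell growth, read with BacTiter-Glo luminescence, gave the measured signal.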
# Potency means the concentration at half of the fitted maximal effect; tags describe the fitted curve by direction and shape.
SMILES,Potency,growth rescue (activation)
Cc1ccc(-c2csc3ncnc(Sc4nnnn4-c4ccccc4)c23)cc1,"inconclusive [activator, single point]",–
Cn1cc([N+](=O)[O-])c(C(=O)Nc2ccc(-c3nc4ccccc4o3)cc2)n1,"inconclusive [activator, single point]",–
CC(C)(C)c1cc2nc(NCc3cccc(Cl)c3)ccn2n1,"inconclusive [activator, single point]",–
COc1ccc(NC(=O)C(C2CC2)n2c(=O)c(-c3ccccc3)nc3ccccc32)cc1 (stereo not drawn),–,inactive: 12.3%
COC(=O)c1[nH]c2ccc(C)cc2c1NC(=O)c1ccccc1[N+](=O)[O-],"inconclusive [activator, single point]",–
CCc1ccc(CN(C)C(=O)c2cc(COc3cccc(C(F)(F)F)c3)on2)nc1,"inconclusive [activator, single point]",–
COc1ccc(-c2cc3cc(C(=O)O)ccn3c2C(=O)c2ccccc2)cc1,"inconclusive [activator, full curve]",–
CCCCCCCCN1C(=O)[C@H](CC(=O)N2CCCC2)C[C@@]2(C(=O)OC)CCCCC=C12,–,inactive: 25.4%
COc1ccc(CN2CCCC(C(=O)N(C)Cc3ccccc3)C2)cc1OC (stereo not drawn),"inconclusive [activator, single point]",–
Cc1ccc(S(=O)(=O)N(CCCO)CC(O)CON=C2c3ccccc3-c3ccccc32)cc1 (stereo not drawn),"inconclusive [activator, single point]",–
COc1ccc(CCC(C)NCc2ccc(C(F)(F)F)cc2)cc1 (stereo not drawn),–,inactive: 0.975%
Cc1cccc(NC(=O)CSc2cccc3cccnc23)c1,"inconclusive [activator, single point]",–
O=S(=O)(c1ccccc1)N1CCN(c2ncnc3scc(-c4ccccc4)c23)CC1,"inconclusive [activator, partial curve]",–
Cc1[nH]c(-c2ccc(F)cc2)cc1C(=O)N1CCN(c2ccccc2)CC1,"inconclusive [activator, single point]",–
CCC(C)[C@H](NC(=O)Nc1ccc(C)cc1C)C(=O)O (stereo partly drawn),"inconclusive [activator, single point]",–
COC(=O)c1ccccc1NC(=O)C1CCCN(c2nnc(-n3cccc3)s2)C1 (stereo not drawn),"inconclusive [activator, single point]",–
COc1ccc(N2C(=O)CS(=O)(=O)C23C(=O)N(Cc2ccc(F)cc2)c2ccc(C)cc23)cc1 (stereo not drawn),–,inactive: -2.15%
Cc1ccc(C(=O)c2cn[nH]c2-c2cc(Cl)ccc2O)cc1,"inconclusive [activator, full curve, poor fit]",–
O=c1oc2ccccc2nc1/C=C(\O)c1ccccc1,–,inactive: -2.2%
CC1CCCN(S(=O)(=O)c2ccc(CN3C(=O)c4cccnc4C3=O)cc2)C1 (stereo not drawn),active: 0.562 µM,–
C#CCOCCOCCOCCNc1nc(N2CCN(C(=O)[C@H](CCCCN)n3cc([C@@H](N)C(C)CC)nn3)CC2)nc(N2CCN(C(=O)[C@H](CCCCN)n3cc([C@@H](N)CC(C)C)nn3)CC2)n1 (stereo partly drawn),–,inactive: -1.01%
O=C(NCCCN1CCOCC1)c1ccc(CS(=O)(=O)Cc2ccccc2Cl)o1,"inconclusive [activator, single point]",–
Cc1ccc(/C=N/Nc2ccc(F)cc2)s1,"inconclusive [activator, partial curve]",–

SMILES,Potency,growth rescue (activation)
CCN1C(=O)[C@H]2[C@@H](c3ccc(-c4ccc(OC)cc4)cc3)N3CCCC[C@@]3(C(=O)OC)[C@H]2C1=O,"inconclusive [activator, partial curve]",–
Brc1ccc(CSc2nnc(-c3ccccn3)n2Cc2ccco2)cc1,–,inactive: -1.04%
O=C(Nc1ccc2ccccc2c1)C(C1CC1)n1c(=O)c(-c2cc3ccccc3[nH]2)nc2ccccc21 (stereo not drawn),"inconclusive [activator, single point]",–
O=S(=O)(Nc1cccc2ccccc12)c1ccc2ccccc2c1,active: 20 µM,–
O=C1ON=C(c2ccccc2)/C1=C/c1ccc(O)c(O)c1,active: 5.01 µM,–
Cc1cc(O)c(C(=O)/C=C/c2ccccc2O)c(=O)o1,"inconclusive [activator, full curve]",–
O=C(NCc1ccc(F)cc1)c1cc(C2CCCN(C(=O)c3ccc4c(c3)CCO4)C2)on1 (stereo not drawn),"inconclusive [activator, single point]",–
OC(CSc1nnnn1-c1ccccc1)Cn1c2ccccc2c2ccccc21 (stereo not drawn),"inconclusive [activator, single point]",–
COc1ccc(/C=N/NC(=O)c2ccn[nH]2)cc1Cn1nc(C)c([N+](=O)[O-])c1C,"inconclusive [activator, single point]",–
COC(=O)C(C(=O)N1CCN(C)CC1)C1CCCCCC1 (stereo not drawn),–,inactive: -9.71%
COc1ccc(-c2csc(C(O)c3cccc(OC)c3)n2)cc1 (stereo not drawn),active: 3.55 µM,–
O=C(O)CCCN1C(=O)/C(=C\c2ccco2)SC1=S,"inconclusive [activator, partial curve]",–
Cc1cccc(NC(=O)CC2SC(=O)N(c3ccccc3)C2=O)c1 (stereo not drawn),–,inactive: -10.1%
CC1Nc2ncnc(N3CCc4ccccc4C3)c2N(Cc2ccc(Br)cc2)C1=O (stereo not drawn),"inconclusive [activator, single point]",–
Cn1cc(C(=O)N/N=C/C(Br)=C/c2ccccc2)ccc1=O,–,inactive: 7.48%
O=C1OC(N2C(=O)CC[C@H]2C(=O)Nc2cccc(F)c2)c2ccccc21 (stereo partly drawn),"inconclusive [activator, single point]",–
COc1ccccc1-c1cc(NC=O)c2ncc(-c3ccc(F)cc3)n2c1,"inconclusive [activator, single point]",–
COc1ccc(/C=C(\NC(=O)c2ccc(Cl)cc2)C(=O)NCc2cccnc2)cc1OC,"inconclusive [activator, single point]",–
COc1ccc(CN2CCN(Cc3ccc4ccccc4c3)CC2)cc1OC,–,inactive: 1.6%
O=C1c2ccccc2C(=O)C1c1ccc2ccccc2n1,"inconclusive [activator, full curve]",–
O=C(CSc1ccsc1[N+](=O)[O-])NC1CCCC1,"inconclusive [activator, single point]",–
COc1cccc(CNC(=O)c2ccccc2NC(=O)C2=C(C)OCCS2)c1,–,inactive: -25%
CCN(CC)S(=O)(=O)c1cc(NC(=O)C(C)N2CCN(c3ccccn3)CC2)ccc1C (stereo not drawn),–,inactive: -2.63%

SMILES,Potency,growth rescue (activation)
COCc1ccc(CN2CCCC(CO)(Cc3cccc(Cl)c3)C2)o1 (stereo not drawn),"inconclusive [activator, single point]",–
CC(=O)N1CCN(c2ncnc3sc(-c4ccccc4)cc23)CC1,–,inactive: -2.74%
COc1ccc(Cl)cc1C=CC=NNS(=O)(=O)c1ccc(C)cc1,"inconclusive [activator, single point]",–
O=c1ccc(-c2ccccc2)nn1Cc1ccc(Cl)cc1,"inconclusive [activator, single point]",–
Cc1ccc(C)c(NC(=O)Nn2cnnc2)c1,"inconclusive [activator, single point]",–
CCOC(=O)C(Cc1ccc(O)c([N+](=O)[O-])c1)N1C(=O)c2ccccc2C1=O (stereo not drawn),"inconclusive [activator, single point]",–
Clc1cccc(Cc2c(-c3ccccc3)nc3c4ccccc4ccn23)c1,"inconclusive [activator, single point]",–
COc1ccc(OC2CCN(S(=O)(=O)c3ccc(C(C)=O)cc3)CC2)cc1,"inconclusive [activator, single point]",–
C/C(=C1/C=Nc2ccccc21)c1ccc(N(C)C)cc1,"inconclusive [activator, single point]",–
CCCCC(CCCC)c1ccc(C=Nc2ccc(/C=C/c3ccnc4ccccc34)cc2)cc1,–,inactive: 6.84%
Cc1ccc2ccc(C(Nc3cccc(C(F)(F)F)c3)c3cccnc3)c(O)c2n1 (stereo not drawn),"inconclusive [activator, single point]",–
c1nc(N2CCC3(CC2)OCCO3)c2c3c(sc2n1)CCCC3,–,inactive: 6.4%
Cc1ccc(C(=O)CN(C(=O)c2ccc(Cl)c(Cl)c2)N2C(=O)C3C4C=CC(C4)C3C2=O)cc1 (stereo not drawn),"inconclusive [activator, single point]",–
CCCCCCCNC1=CC(=O)CC(c2ccccc2)C1 (stereo not drawn),–,inactive: 16.5%
O=C1CCC(/C=C/c2ccccc2)=NN1Cc1ccc(Cl)c(Cl)c1,"inconclusive [activator, single point]",–
COc1ccc(C(CC(=O)O)NC(=O)c2cc3ccccc3oc2=O)cc1OC (stereo not drawn),"inconclusive [activator, single point]",–
CCOc1ccc(CC(=O)Nc2c(C(=O)Nc3ccccc3)oc3ccccc23)cc1OCC,–,inactive: -1.66%
CCc1nnc(NC(=O)c2ccc(S(=O)(=O)N(CC)Cc3ccccc3)cc2)o1,active: 12.6 µM,–
Cc1ccc(C(=O)CC(=O)COc2ccc(Cl)cc2)cc1,"inconclusive [activator, single point]",–
CC(C)[C@H]1c2ccc(F)cc2CC[C@@]1(CCN(C)CCCc1nc2ccccc2[nH]1)OC(=O)C1CC1,"inconclusive [activator, single point]",–
O=c1c2c(-c3ccccc3)csc2ncn1/N=C/c1cccc([N+](=O)[O-])c1O,"inconclusive [activator, single point]",–
C1=CCN(c2nc(N3CCOCC3)nc(N3CCCc4ccccc43)n2)CC1,"inconclusive [activator, single point]",–

# Source: PubChem BioAssay AID652106 (National Center for Advancing Translational Sciences (NCATS), 2013)
